ChEMBL document CHEMBL4888484, “Replenishing the malaria drug discovery pipeline: Screening and hit evaluation of the MMV Hit Generation Library 1 (HGL1) against asexual blood stage Plasmodium falciparum ,using a nano luciferase reporter read-out” (2022)
Several values for one entry are separate records, joined by “and”; a condition that tells them apart may be missing. Equal entries are not always repeated. Hit rate of the full screen: of about 150,000 compounds, about 540 (0.36%) showed an effect of 50% or more. The list shows a part of the results.

System: Plasmodium falciparum
Test: Primary screen in NF54 nanoGlo assay, in single point, at 2uM, 72h; a lower Z score goes with more inhibition
Format: functional, Erythrocyte
Details: timepoint 72 hour

SMILES: Cc1cc(=O)[nH]c(NCCNC(=O)NCc2cc(C3CC3)[nH]n2)n1
- % Inhibition: 4%
- Z score: -0.7

SMILES: C[C@@H](c1cc2ccccc2[nH]1)N(C)C(=O)c1cnn2c1CCCC2
- % Inhibition: -30%
- Z score: 3.78

SMILES: Cc1csc(N(C(=O)CCn2nc(C)cc2C)C2CC2)n1
- % Inhibition: -15%
- Z score: 2.16

SMILES: O=C1[C@@H]2CCCN2S(=O)(=O)N1Cc1ccccc1
- % Inhibition: -7%
- Z score: 1.11

SMILES: C#CCOC(=O)c1ccc2cc[nH]c2n1
- % Inhibition: -5%
- Z score: 0.77

SMILES: Fc1ccc(-c2nn(-c3ccccc3)cc2C=Cc2ccccn2)cc1
- % Inhibition: -7%
- Z score: 0.76

SMILES: CCn1cc(S(=O)(=O)NC(=O)c2cccn2C2CCCC2)cn1
- % Inhibition: -12%
- Z score: 1.68

SMILES: O=S(=O)(c1ccc(F)c(F)c1)N1CCCN([C@H]2CCOC2)CC1
- % Inhibition: -14%
- Z score: 2.38

SMILES: O=C(c1ccoc1)N1CCC(CCOc2ccccc2F)CC1
- % Inhibition: -1%
- Z score: 0.12

SMILES: Cc1ccc([C@@H](C)CCN(C)Cc2cc[nH]n2)o1
- % Inhibition: -7%
- Z score: 1

SMILES: Cc1nnc2n1C[C@@H](NC(=O)Nc1cccc(CN3CCCCC3=O)c1)CC2
- % Inhibition: 22%
- Z score: -2.88

SMILES: Cn1c(Cn2cccn2)nnc1C1CCN(c2nccc(N)n2)CC1
- % Inhibition: -3%
- Z score: 0.55

SMILES: Cc1ccc(-c2nccn3cc(C(=O)NCc4ccccn4)nc23)cc1
- % Inhibition: -11%
- Z score: 1.59

SMILES: CC(C)C(=O)N1CCc2cc(CNC(=O)Cc3cccs3)ccc21
- % Inhibition: -6%
- Z score: 0.95

SMILES: O=c1cc(-c2ccccc2)n(S(=O)(=O)c2ccc(Br)cc2)o1
- % Inhibition: 8%
- Z score: -1.07

SMILES: CCC[C@H]1CN(C(=O)c2cnc(-c3ccncc3)nc2)C[C@@H]1N(C)C
- % Inhibition: -3%
- Z score: 0.55

SMILES: CC(C)c1nnc(NC(=O)[C@H](Cc2ccccc2)NC(=O)N2CCCC2)s1
- % Inhibition: -6%
- Z score: 0.75

SMILES: COc1ccc(CCC(=O)N2C[C@@H](CN3CCN(C)CC3)[C@@H](CO)C2)cc1
- % Inhibition: -12%
- Z score: 1.51

SMILES: Cc1ccc(C)c(C(C)N(C)C(=O)C2CCCNC2)c1 (centres undefined)
- % Inhibition: -10%
- Z score: 0.84

SMILES: CN(C)c1cccc(C(=O)Nc2ccc(-c3nnc4n3CCCCCC4)cc2)c1
- % Inhibition: -22%
- Z score: 2.48

SMILES: COc1cccc(C(=O)N2C[C@@H]3CN(CC(C)C)CC[C@]3(CO)C2)c1C
- % Inhibition: -12%
- Z score: 1.68

SMILES: O=C(NC1CCN(C2CC2)CC1)C1CC1c1cccc(F)c1F (centres undefined)
- % Inhibition: 8%
- Z score: -0.79

SMILES: Cc1cc(C)nc(NS(=O)(=O)c2ccc(NCc3cc(Cl)cc(Cl)c3O)cc2)n1
- % Inhibition: 5%
- Z score: -0.8

SMILES: O=C(N[C@H]1CCCN(Cc2ccncc2)CC1)c1ncoc1C1CC1
- % Inhibition: -5%
- Z score: 0.83

SMILES: CC(C)Oc1nccnc1NC[C@](C)(O)c1cccc(Cl)c1
- % Inhibition: 31%
- Z score: -4.42

SMILES: O=C(NC1CCN(C[C@H]2CCCO2)CC1)N1CCC(c2ccccc2)CC1
- % Inhibition: -14%
- Z score: 1.53

SMILES: COc1ccc(N(C)S(=O)(=O)c2ccsc2-c2nc(-c3cccc(C)c3)no2)cc1Cl
- % Inhibition: -7%
- Z score: 0.94

SMILES: CCC[C@H](C)C(=O)Nc1nnc(C)s1
- % Inhibition: -12%
- Z score: 2.27

SMILES: Nc1nnnn1CC(=O)N1CCC2(CCC(=O)N(CCc3cccnc3)C2)CC1
- % Inhibition: -6%
- Z score: 1.05

SMILES: Cc1nc2ccccc2n1CCN[C@@H](C)CCN1C(=O)c2ccccc2C1=O
- % Inhibition: -3%
- Z score: 0.44

SMILES: CCOc1ccc(CNC(=O)c2cccn2-c2cccnc2C)cc1
- % Inhibition: 2%
- Z score: -0.17

SMILES: CCc1cn[nH]c1[C@H]1CCCN(C(=O)c2cc3c(nc2OC)CCC3)C1
- % Inhibition: -9%
- Z score: 1.12

SMILES: O=C(c1ccco1)N1CCN(c2nnnc3c2cnn3-c2ccccc2)CC1
- % Inhibition: -12%
- Z score: 1.81

SMILES: CCc1nnc2c(S(=O)(=O)N(Cc3ccccc3F)c3ccc(F)cc3)cccn12
- % Inhibition: 0%
- Z score: 0.03

SMILES: Cc1cc(C)n(CCN[C@@](C)(CO)C2CCCCC2)n1
- % Inhibition: -3%
- Z score: 0.52

SMILES: COC1(c2nccn2C)CN(C(=O)c2scnc2C(C)C)C1
- % Inhibition: 18%
- Z score: -2.06

SMILES: Cc1cccc(OCC(=O)Nc2cc(-c3noc(C)n3)sc2C)c1
- % Inhibition: -14%
- Z score: 2.32

SMILES: OC1(Cc2nc(-c3cc4ccccc4o3)no2)CCCC1
- % Inhibition: -6%
- Z score: 0.86

SMILES: Cc1cnc(CNC(=O)c2cc3cccc(Cl)c3n2C)cn1
- % Inhibition: 4%
- Z score: -0.53

SMILES: Cc1cc(C(=O)N2CCc3onc(-c4cccc5ccccc45)c3C2)[nH]n1
- % Inhibition: -19%
- Z score: 3.97

SMILES: O=C([C@@H]1Cc2ccccc2S(=O)(=O)N1)N1CCc2[nH]cnc2C1
- % Inhibition: -6%
- Z score: 0.98

SMILES: Cc1ccc(=O)n(Cc2ccc3c(c2)CCC3)n1
- % Inhibition: 28%
- Z score: -3.19

SMILES: Cc1nc(N(C)C)ncc1C(=O)N1C[C@H](O)CO1
- % Inhibition: 10%
- Z score: -0.93

SMILES: Cc1onc(C(=O)N2CCC3(CC2)CC[C@]3(C)O)c1CN1CCCCC1
- % Inhibition: 5%
- Z score: -0.65

SMILES: Cn1nc(C2CC2)nc1CN1CCO[C@@H](Cn2cccn2)C1
- % Inhibition: 0%
- Z score: 0.05

SMILES: Cc1ccc(Cn2nc(CC(N)=O)nc2Cn2nc(C)ccc2=O)cc1
- % Inhibition: -3%
- Z score: 0.47

SMILES: Cc1cc(Cl)ccc1OCCOCCN(C)CCO
- % Inhibition: 0%
- Z score: 0.04

SMILES: O=C(c1n[nH]c2c1COCC2)N1CCO[C@H](c2ccccc2)C1
- % Inhibition: -9%
- Z score: 1.8

SMILES: CC(C)c1nc(-c2cc3ncc(CCO)cn3n2)n(-c2ccccn2)n1
- % Inhibition: -10%
- Z score: 1

SMILES: OC(c1ccccc1)c1ncnn1CC1(O)CCCOC1 (centres undefined)
- % Inhibition: 3%
- Z score: -0.4

SMILES: COc1ccnc(CNC(=O)N[C@H](C)C2CCCc3ccccc32)c1F (some centres undefined)
- % Inhibition: -8%
- Z score: 0.76

SMILES: Cc1nc(C(=O)NC[C@H](C)C2CCCCC2)n(C)n1
- % Inhibition: -9%
- Z score: 1.07

SMILES: CC(O)CNC(CCCNC(=O)OC(C)(C)C)c1ccccc1 (centres undefined)
- % Inhibition: -9%
- Z score: 1.45

SMILES: Cn1nc(-c2ccsc2)cc1NC(=O)N1C2CCC1CC1(C2)CC1(F)F (centres undefined)
- % Inhibition: -4%
- Z score: 0.73

SMILES: NC(=O)N1CCC[C@H](CNC(=O)Cc2cc(-c3ccccc3)on2)C1
- % Inhibition: -8%
- Z score: 0.92

SMILES: CC(C)(O)CN1CCN(C(=O)CCNC(=O)C(C)(C)C)CC1
- % Inhibition: 4%
- Z score: -0.45

SMILES: CN(CCn1ccnc1)c1cc([C@H]2CCOC2)nc(N)n1
- % Inhibition: -14%
- Z score: 1.58

SMILES: Cc1nc([C@@H]2COCCN2Cc2ccc3nonc3c2)no1
- % Inhibition: -5%
- Z score: 0.97

SMILES: CCC(=O)C(=O)N1CC(=O)N(c2ccccc2-c2ccccc2)C[C@@H]1Cc1ccccc1
- % Inhibition: 10%
- Z score: -1.33

SMILES: O=S1(=O)CC[C@H](Nc2nc3ccc(Cl)cc3s2)C1
- % Inhibition: 1%
- Z score: -0.15

SMILES: Cc1ccc(CNC(=O)CNC(=O)OCC(F)(F)F)n1C
- % Inhibition: -4%
- Z score: 0.62

SMILES: CCC(C)C(=O)NCC(c1ccsc1)N(C)C (centres undefined)
- % Inhibition: -6%
- Z score: 1.2

SMILES: CCc1c(C)cc(C(=O)N(C)CCn2cccn2)c(=O)n1C
- % Inhibition: 12%
- Z score: -1.63

SMILES: CCC(CC)NCc1cccc(OC)c1OC
- % Inhibition (2 µM): -6% and -2%
- Z score (2 µM): 0.9 and 0.41

SMILES: Cn1nccc1C(=O)NCCCn1cc(Cl)cn1
- % Inhibition: -18%
- Z score: 1.95

SMILES: Cc1cccnc1CNC(=O)c1cccc(S(=O)(=O)N[C@H]2CCOC2)c1
- % Inhibition: 1%
- Z score: -0.2

SMILES: C[C@H](Nc1ncc(C(F)(F)F)cc1Cl)C(N)=O
- % Inhibition: -10%
- Z score: 1.96

SMILES: CN(C)[C@H]1CN(S(=O)(=O)c2ccc(C#N)cc2)CC12CCOCC2
- % Inhibition: -11%
- Z score: 2.19

SMILES: Cc1cc(C(=O)Nc2c(-c3cnn(C)c3)nc3n2CCCC3)ns1
- % Inhibition: -4%
- Z score: 0.41

SMILES: CN(Cc1ccccc1)c1ncc2c(n1)CC(C)(C)C[C@@H]2NC1CCOCC1
- % Inhibition: -21%
- Z score: 1.82

SMILES: CC(NC(=O)N1CCC(C(N)=O)CC1)C1CC1c1ccccc1 (centres undefined)
- % Inhibition: -12%
- Z score: 1.9

SMILES: O=C(CN1C(=O)c2ccccc2C1=O)N1CCC(c2ccccc2)=N1
- % Inhibition: -4%
- Z score: 0.57

SMILES: O=C(Nc1nncs1)N(CC(F)(F)F)C1CCCC1
- % Inhibition: 24%
- Z score: -2.74

SMILES: C[C@@H]1COCCN1Cc1cn(Cc2nccn2CC(F)(F)F)nn1
- % Inhibition: 0%
- Z score: -0.05

SMILES: CCc1nnc(CNC(=O)C[C@H]2CCCOC2)o1
- % Inhibition: -10%
- Z score: 1.6

SMILES: CCC[C@H]1CN(Cc2cnc(N3CCCC3)s2)C[C@@H]1NS(C)(=O)=O
- % Inhibition: 5%
- Z score: -0.91

SMILES: O=C(NC1(c2ccc(F)cn2)CC1)c1ccc(OC(F)F)nc1
- % Inhibition: -4%
- Z score: 0.59

SMILES: C[C@H](Oc1ccccc1F)c1nnc2n1CCCC2
- % Inhibition: -9%
- Z score: 1.39

SMILES: C[C@@H](c1ccc(C(=O)N2CCc3ccccc3C2)o1)N1CCCCC1
- % Inhibition: -16%
- Z score: 1.57

SMILES: O=C(C[C@H]1COCCN1C(=O)CCc1cccnc1)c1ccccc1
- % Inhibition: 7%
- Z score: -0.93

SMILES: COc1ccc(CNC(=O)N2CC[C@H](Cc3nccs3)C2)nc1
- % Inhibition: -9%
- Z score: 1.34

SMILES: CC(C)n1cnc2ccc(CNC(=O)[C@H]3CCc4nncn4C3)cc21
- % Inhibition: 1%
- Z score: -0.12

SMILES: CNC(=O)c1nc(CN2C(=O)COc3ccc(F)cc32)no1
- % Inhibition: 4%
- Z score: -0.58

SMILES: O=C(CCN1CCN(c2ccccc2)CC1)NCc1ccc(O)nc1
- % Inhibition: -16%
- Z score: 2.31

SMILES: C[C@@H](C(=O)NC(C)(C)C)N1CCN(c2nc[nH]n2)CC1
- % Inhibition: -9%
- Z score: 1.05

SMILES: C#CC(C)(C)OC(=O)Nc1ccccc1
- % Inhibition: -9%
- Z score: 1.3

SMILES: O=C(CCc1ccncn1)N[C@H]1CCN(C(=O)CCc2ccccc2)C1
- % Inhibition: -9%
- Z score: 1.18
